# Measurements taken from PubChem BioAssay AID938 (National Center for Advancing Translational Sciences (NCATS), 2007).
# The campaign covered roughly 73,000 compounds. About 1,800 (2.5%) were called active. Inconclusive means that the source gave no clear call. Such entries were picked first, then a sample of the others. The call rests on the fitted dose curve; in most records, active means well fitted activation curve with a large enough effect; inconclusive means small, poorly fitted or top-dose-only effect; inactive means no such curve, though single readings can be large or run the other way. Potencies of inconclusive entries are left out as doubtful fits.
# Experiment: qHTS Assay for Agonists of the Thyroid Stimulating Hormone Receptor: Activators of Intracellular cAMP Concentrations in Parental HEK 293; further: nearly all actives have a fitted effect of over 55% in size; on activation: % of control where 0% means no effect
# Conditions: parental HEK293 CNG cAMP sensor, membrane potential fluorescence; activation: at 57.1 µM (top of the series) unless noted
# Outline: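 Parental HEK 293 cells stably expressing a modified CNG channel (no TSHR) report cAMP rise as membrane depolarization. Membrane potential dye with 100 uM RO 20-1724 was loaded for 60 min at room temperature, then compound added for 30 min; fluorescence read at 590 nm.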
# Potency means the concentration at half of the fitted maximal effect; tags describe the fitted curve by direction and shape.
SMILES,activation,Potency
Cn1c(=O)c2c(nc(CN3CCc4ccccc4C3)n2Cc2cccc(Cl)c2)n(C)c1=O,inactive: 15.4%,
O=C(c1ccc2c(c1)C(=O)N(CCCO)C2=O)c1ccc2c(c1)C(=O)N(CCCO)C2=O,,"inconclusive [activator, single point]"
CCN(CC)S(=O)(=O)c1cccc(-c2nnc(SCCOc3ccc(Cl)cc3)o2)c1,,"inconclusive [activator, partial curve]"
Cn1c(SCC(=O)N2CCN(c3ccccc3)CC2)nnc1-c1cc2ccccc2o1,,"inconclusive [activator, partial curve]"
CCCCCCc1nc2ccccc2c(=O)n1N,,"inconclusive [activator, partial curve]"
COc1ccc(C2CC(=O)N3C(=C2C#N)SCC3(O)c2ccccc2)cc1 (stereo not drawn),,"inconclusive [activator, single point]"
O=c1cnc2cnc(Nc3ccccc3)nc2n1Cc1cccs1,,active: 12.6 µM
CS(=O)(=O)N1CCN(C(=O)c2cc(-c3cccs3)nc3ccccc23)CC1,inactive: -3.89%,
CN1CCN(c2ncc3nc(-c4ccc(Cl)cc4)c(=O)n(Cc4cccs4)c3n2)CC1,,"inconclusive [activator, single point]"
CC(C)CCSc1nc2c(c(=O)[nH]c(=O)n2C)n1CCc1ccccc1,,active: 10 µM
CCOC(=O)c1[nH]c2ccc(C)cc2c1N=C(C)N(C)C,,"inconclusive [activator, single point]"
Cc1cc(CNC(=O)[C@H](C)[C@H]2C[C@]2(C)[C@H](NC(=O)OCc2ccccc2)c2ccccc2)nn1C,,"inconclusive [activator, partial curve]"
OC(COCc1ccccc1)CN1CCN(c2ccccc2)CC1 (stereo not drawn),,"inconclusive [activator, single point]"
CC(C)C[C@@H](CC(=O)N[C@@H](CCCN)CC(=O)N[C@@H]1CCCC[C@H]1C(=O)N[C@H](CC(=O)N[C@@H](CCC(=O)O)CC(=O)O)Cc1c[nH]c2ccccc12)NC(=O)[C@@H]1CCCC[C@H]1N,inactive: 4.52%,
COc1ccc(Cn2nnnc2C(c2ccccn2)N2CCN(c3cc(Cl)ccc3C)CC2)cc1 (stereo not drawn),,"inconclusive [activator, partial curve]"
Cc1cc(F)ccc1OC1C=CC(c2ccc3c(c2)OCO3)OC1CO (stereo not drawn),inactive: -6.52% [at 11.4 µM],
CCN1CCc2nc(N)oc2CC1,,"inconclusive [activator, full curve, poor fit]"
O=C(NCCCN1CCOCC1)C(C(=O)c1ccccc1)n1ccccc1=O (stereo not drawn),,"inconclusive [activator, single point]"
COc1cccc(-n2nnc3c(=O)n(Cc4ccc(C)cc4)cnc32)c1,,active: 15.8 µM
O=C1c2ccccc2S(=O)(=O)N1CC(O)Cn1c2ccccc2c2ccccc21 (stereo not drawn),,"inconclusive [activator, single point]"
Cc1ccc(C)n1-c1ccc(-c2nnc3n2CCCCC3)s1,inactive: 11.9%,
c1ccc2sc(NC3=NCN(Cc4ccc5c(c4)OCO5)CN3)nc2c1,,"inconclusive [activator, partial curve]"
CCOC(=O)c1c(NC(=O)CN2CCCCC2)sc2c1CCN(C(=O)OCC)C2,,active: 7.94 µM

SMILES,activation,Potency
COC(=O)CSc1nc2sc3c(c2c(=O)n1-c1ccccc1)CCN(C)C3,,"inconclusive [activator, single point]"
CCCc1nc(NCc2ccncc2)c2nnn(Cc3ccccc3F)c2n1,,"inconclusive [activator, partial curve]"
Cc1oc(-c2ccccc2F)nc1CS(=O)CC(=O)NCc1cccs1 (stereo not drawn),,"inconclusive [activator, single point]"
O=C(Nc1ccc(Br)cc1F)c1sccc1-n1cccc1,,"inconclusive [activator, single point]"
Cc1ccccc1-c1nc(N(C)Cc2ccco2)c2ccccc2n1,,active: 25.1 µM
CCN(c1cccc(C(F)(F)F)c1)S(=O)(=O)c1ccc2c(c1)CCN2C(=O)C1CC1,,active: 25.1 µM
Cc1nn2c(CN(C(=O)c3ccco3)c3ccccc3)nnc2c2ccccc12,,"inconclusive [activator, partial curve]"
CNC(=O)C1CC(=O)N(c2ccc(C)cc2)C1 (stereo not drawn),,"inconclusive [activator, single point]"
O=C(C1Cc2ccccc2CN1S(=O)(=O)c1ccc(F)cc1)N1CCCCCC1 (stereo not drawn),,"inconclusive [activator, single point]"
Cc1cccc(NC(=O)CSc2nnc(-c3ccccc3Br)o2)c1C,,"inconclusive [activator, partial curve, poor fit]"
COC(=O)c1ccc(CSc2nc(C)nc3c2c(=O)n(C)c(=O)n3C)o1,,active: 25.1 µM
CCC/C=C(\CCC)C(NC(=O)c1cccs1)c1ccc(C(=O)OC)cc1 (stereo not drawn),,active: 12.6 µM
COc1ccc(S(=O)(=O)Nc2nncs2)cc1,,"inconclusive [activator, single point]"
CCOC(=O)CSc1nc2ccsc2c(=O)n1C1CCN(C(=O)OCC)CC1,,"inconclusive [activator, partial curve]"
c1ccc(Cn2nnc3c(N4CCC5(CC4)OCCO5)ncnc32)cc1,,"inconclusive [activator, single point]"
COC(=O)c1ccc(Oc2nc(NC(C)C)nc(SC)n2)cc1,,"inconclusive [activator, single point]"
Cc1nnc(N(C)C(=O)Cc2ccc3c(c2)OCO3)s1,,"inconclusive [activator, single point]"
COc1ccc(NC(=O)CN(c2cc(C)cc(C)c2)S(=O)(=O)c2c(C)n[nH]c2C)cc1,,"inconclusive [activator, single point]"
O=c1c(CCc2ccccc2)nc2cnc(Oc3ccccc3)nc2n1C[C@H]1CCCO1,,"inconclusive [activator, full curve]"
Nc1ccc(O)c(-c2nc3ccccc3s2)c1,inactive: -4.05%,
O=Cc1ccc(OC2C=CC(C#Cc3ccccc3)OC2CO)cc1 (stereo not drawn),inactive: -3.81% [at 11.4 µM],
COCCN(CCOC)c1nc(C)nc2c1nc(-c1ccccc1)n2CCCN1CCCCC1C (stereo not drawn),inactive: 26.8%,
CCc1ccc(C(=O)NC2CCCCC2)s1,,"inconclusive [activator, partial curve]"

SMILES,activation,Potency
COc1ccc(OC)c(C2CC(=O)N3CN(c4cccc(Cl)c4C)CSC3=C2C#N)c1 (stereo not drawn),,"inconclusive [activator, single point]"
COCCN(CCOC)C(=O)c1ccc(Cc2nc3ccccc3[nH]2)cc1,inactive: -7.46%,
Cc1sc2nc(SCC(=O)NCc3ccco3)n(-c3ccccc3)c(=O)c2c1C,inactive: -7.45%,
COCCN(C(=O)CCCC(=O)Nc1ccccn1)C(C(=O)NC1CCCC1)c1ccc(C)cc1 (stereo not drawn),,"inconclusive [activator, partial curve]"
CCOC(=O)C1CCCN(C(=O)c2cc3c(-c4cccc(OC)c4)nn(C)c3s2)C1 (stereo not drawn),inactive: 16.3%,
Cc1csc2nc(CSc3ccc(Cl)cc3)cn12,,"inconclusive [activator, partial curve]"
COc1ccc2nc3sc(C(=O)NCc4cccs4)c(N)c3cc2c1,inactive: -2.79%,
Cc1cc(C(C)(C)C)oc1C(=O)N1CCN(C(=O)c2oc(C(C)(C)C)cc2C)CC1,,"inconclusive [activator, partial curve]"
COc1ccc2[nH]cc(CCNc3cc(-c4ccccc4CN(C)C)ncn3)c2c1,,"inconclusive [activator, full curve]"
CC(C)C[C@@H](CC(=O)N[C@@H](CCCN)CC(=O)N[C@@H]1CCNC[C@H]1C(=O)N[C@H](CC(=O)N[C@@H](CCC(=O)O)CC(=O)O)Cc1ccccc1)NC(=O)[C@@H]1CNCC[C@H]1N,,"inconclusive [activator, single point]"
CCOC(=O)c1oc2ccccc2c1CSc1nnnn1-c1ccccc1,,active: 15.8 µM
CCOC(=O)c1cccc(NC(=O)CSc2nnc(C3CCCCC3)n2CC)c1,,active: 25.1 µM
CCc1cc2c(N3CCCCC3)ncnc2s1,,"inconclusive [activator, partial curve]"
Cc1ccccc1Cn1cnc2c(nnn2Cc2ccc(F)cc2)c1=O,,"inconclusive [activator, single point]"
Cc1noc(C)c1COc1cccc(C(=O)OCC(=O)N2CC(=O)Nc3ccccc32)c1,,"inconclusive [activator, partial curve]"
COc1ccc(N=c2oc3c(OC)cccc3cc2C(=O)NCc2ccco2)c(OC)c1,,"inconclusive [activator, partial curve]"
CCC(C)(C)n1nnnc1CN(Cc1cccs1)Cc1cc2cc(OC)ccc2[nH]c1=O,,active: 15.8 µM
CCCCCn1c(=O)[nH]c2cc(C(=O)NCCN(CC)CC)ccc2c1=O,inactive: 4.68%,
O=C(c1ccco1)N1CCN(c2nc(C3CC3)nc3sc4c(c23)CCCC4)CC1,,"inconclusive [activator, partial curve]"
CN1/C(=C\C(=O)C(F)F)C(C)(C)c2ccccc21,,active: 31.6 µM
CCN(Cc1ccccc1)c1ccccc1,,"inconclusive [activator, single point]"
CCOc1ccccc1C(=O)NCCC(=O)O,,"inconclusive [activator, single point]"
